Test results taken from the supplement of paper PMC8728848.
This is one part of the list.

Legend:
Assay in all cases: glycan array binding signal (z-score within array); higher = stronger binding
Settings in all cases: glycan notation: IUPAC condensed, linker removed
[1] = molecular target: Fuc(a1-2)[GalNAc(a1-3)]Gal(b1-4)GlcNAc(b1-3)GalNAc
Procedure, shortened: (§1)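 The binding signal is a Z-score computed within each array. Data were drawn from 3228 arrays in the Consortium for Functional Glycomics database, restricted to those with a known protein sequence. Scores were averaged over arrays of the same protein sequence at different concentrations or buffers, and over linkers, and negative values can be taken as non-binding.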

[2] = molecular target: Fuc(a1-2)[GalNAc(a1-3)]Gal(b1-4)GlcNAc(b1-3)[Fuc(a1-2)[GalNAc(a1-3)]Gal(b1-4)GlcNAc(b1-6)]GalNAc
Procedure, shortened: as §1

[3] = molecular target: Fuc(a1-2)[GalNAc(a1-3)]Gal(b1-4)GlcNAc(b1-6)GalNAc
Procedure, shortened: as §1

[4] = molecular target: Fuc(a1-2)[GalNAc(a1-3)]Gal(b1-4)[Fuc(a1-3)]GlcNAc
Procedure, shortened: as §1

[5] = molecular target: Fuc(a1-2)[GalNAc(a1-3)]Gal(b1-4)[Fuc(a1-3)]GlcNAc(b1-3)GalNAc
Procedure, shortened: as §1

[6] = molecular target: Fuc(a1-2)[GalNAc(a1-4)]Gal(b1-4)GlcNAc
Procedure, shortened: as §1

[7] = molecular target: Fuc(a1-2)[GalNAc(b1-3)]Gal
Procedure, shortened: as §1

[8] = molecular target: Fuc(a1-3)GlcNAc
Procedure, shortened: as §1

[9] = molecular target: Fuc(a1-3)[Gal(b1-4)]Glc6S
Procedure, shortened: as §1

[10] = molecular target: Fuc(a1-3)[Gal(b1-4)]GlcNAc
Procedure, shortened: as §1

[11] = molecular target: Fuc(a1-3)[Gal(b1-4)]GlcNAc(b1-2)Man
Procedure, shortened: as §1

[12] = molecular target: Fuc(a1-3)[Gal(b1-4)]GlcNAc(b1-2)Man(a1-3)[Fuc(a1-3)[Gal(b1-4)]GlcNAc(b1-2)Man(a1-6)]Man(b1-4)GlcNAc(b1-4)GlcNAc
Procedure, shortened: as §1

[13] = molecular target: Fuc(a1-3)[Gal(b1-4)]GlcNAc(b1-2)Man(a1-3)[Fuc(a1-3)[Gal(b1-4)]GlcNAc(b1-2)Man(a1-6)]Man(b1-4)GlcNAc(b1-4)[Fuc(a1-6)]GlcNAc
Procedure, shortened: as §1

[14] = molecular target: Fuc(a1-3)[Gal(b1-4)]GlcNAc(b1-3)Gal(b1-3)[Fuc(a1-4)]GlcNAc
Procedure, shortened: as §1

[15] = molecular target: Fuc(a1-3)[Gal(b1-4)]GlcNAc(b1-3)Gal(b1-4)[Fuc(a1-3)]GlcNAc
Procedure, shortened: as §1

[16] = molecular target: Fuc(a1-3)[Gal(b1-4)]GlcNAc(b1-3)Gal(b1-4)[Fuc(a1-3)]GlcNAc(b1-3)Gal(b1-4)[Fuc(a1-3)]GlcNAc
Procedure, shortened: as §1

[17] = molecular target: Fuc(a1-3)[Gal(b1-4)]GlcNAc(b1-3)GalNAc
Procedure, shortened: as §1

[18] = molecular target: Fuc(a1-3)[Gal(b1-4)]GlcNAc(b1-4)Gal(b1-4)[Fuc(a1-3)]GlcNAc
Procedure, shortened: as §1

[19] = molecular target: Fuc(a1-3)[Gal(b1-4)]GlcNAc(b1-4)Gal(b1-4)[Fuc(a1-3)]GlcNAc(b1-4)Gal(b1-4)[Fuc(a1-3)]GlcNAc
Procedure, shortened: as §1

[20] = molecular target: Fuc(a1-3)[Gal(b1-4)]GlcNAc(b1-6)GalNAc
Procedure, shortened: as §1

[21] = molecular target: Fuc(a1-3)[Gal(b1-4)]GlcNAc(b1-6)[Gal(b1-3)GlcNAc(b1-3)]Gal(b1-4)Glc
Procedure, shortened: as §1

[22] = molecular target: Fuc(a1-3)[Gal(b1-4)]GlcNAc6S
Procedure, shortened: as §1

[23] = molecular target: Fuc(a1-3)[Gal3S(b1-4)]Glc
Procedure, shortened: as §1

[24] = molecular target: Fuc(a1-3)[Gal3S(b1-4)]Glc6S
Procedure, shortened: as §1

[25] = molecular target: Fuc(a1-3)[Gal3S(b1-4)]GlcNAc
Procedure, shortened: as §1

[26] = molecular target: Fuc(a1-3)[Gal3S(b1-4)]GlcNAc6S
Procedure, shortened: as §1

[27] = molecular target: Fuc(a1-3)[GalNAc(b1-4)]Gal(b1-4)GlcNAc
Procedure, shortened: as §1

[28] = molecular target: Fuc(a1-3)[GalNAc(b1-4)]GlcNAc
Procedure, shortened: as §1

[29] = molecular target: Fuc(a1-3)[GalNAc(b1-4)]GlcNAc6S
Procedure, shortened: as §1

[30] = molecular target: Fuc(a1-4)GlcNAc
Procedure, shortened: as §1

B1: Epa15 (Candida glabrata) (protein)
chain: MGSSHHHHHHSSGLVPRGSHMASDPTTFPLGCSPEFTKTKKGLSMELYRYDYLPPGSYPCWDSAYLNPSYPRTGYKAKKLIATVDGVSGDINFKFNPKFGCKAIPDYLPSNFNYHEPITITNFTMILYGYFMPKTTAFHTFYVTADDLLFMNFGAGNAFDCCRREETADKFGNYAAYSVWGKKSLKNELTVYLHTGVYYPIRLFYNNRDYIAQLDIRFKTEHSNAIITNFTDYFYSVDDSSLGCPGLI
[1]
  glycan array binding signal (z-score): -0.58
[2]
  glycan array binding signal (z-score): -0.069
[3]
  glycan array binding signal (z-score): -0.352
[4]
  glycan array binding signal (z-score): 0.075
[5]
  glycan array binding signal (z-score): 0.619
[6]
  glycan array binding signal (z-score): -0.222
[7]
  glycan array binding signal (z-score): -0.195
[8]
  glycan array binding signal (z-score): -0.507
[9]
  glycan array binding signal (z-score): 1.16
[10]
  glycan array binding signal (z-score): -0.457
[11]
  glycan array binding signal (z-score): -0.477
[12]
  glycan array binding signal (z-score): -0.403
[13]
  glycan array binding signal (z-score): 0.679
[14]
  glycan array binding signal (z-score): -0.416
[15]
  glycan array binding signal (z-score): -0.073
[16]
  glycan array binding signal (z-score): -0.506
[17]
  glycan array binding signal (z-score): 0.37
[18]
  glycan array binding signal (z-score): -0.271
[19]
  glycan array binding signal (z-score): -0.286
[20]
  glycan array binding signal (z-score): 0.233
[21]
  glycan array binding signal (z-score): -0.364
[22]
  glycan array binding signal (z-score): 0.326
[23]
  glycan array binding signal (z-score): -0.171
[24]
  glycan array binding signal (z-score): -0.279
[25]
  glycan array binding signal (z-score): -0.351
[26]
  glycan array binding signal (z-score): 0.299
[27]
  glycan array binding signal (z-score): -0.279
[28]
  glycan array binding signal (z-score): -0.2
[29]
  glycan array binding signal (z-score): 0.205
[30]
  glycan array binding signal (z-score): -0.396
